About 25,000 (6.9%) of roughly 360,000 compounds were called active. The inconclusive results got no clear call from the source; some entries with a clear call stand among them for comparison. The call rests on the fitted dose curve; in most records, active means well fitted inhibition curve with a large enough effect; inconclusive means small, poorly fitted or top-dose-only effect; inactive means flat fitted curve, though single readings scatter. Where the call is inconclusive, the potency comes from a doubtful curve fit.
These compounds were tested against Luciferin 4-monooxygenase (Photinus pyralis) (UniProt P08659) (assay: qHTS profiling assay for firefly luciferase inhibitor/activator using purifed enzyme and Km concentrations of substrates (counterscreen for miR-21 project)). Conditions: purified FLuc, luminescence inhibition; series mostly up to 57.5 µM; activity change, negative = inhibition: at the top concentration.
Sequence of UniProt P08659 (P08659 whole entry, looked up): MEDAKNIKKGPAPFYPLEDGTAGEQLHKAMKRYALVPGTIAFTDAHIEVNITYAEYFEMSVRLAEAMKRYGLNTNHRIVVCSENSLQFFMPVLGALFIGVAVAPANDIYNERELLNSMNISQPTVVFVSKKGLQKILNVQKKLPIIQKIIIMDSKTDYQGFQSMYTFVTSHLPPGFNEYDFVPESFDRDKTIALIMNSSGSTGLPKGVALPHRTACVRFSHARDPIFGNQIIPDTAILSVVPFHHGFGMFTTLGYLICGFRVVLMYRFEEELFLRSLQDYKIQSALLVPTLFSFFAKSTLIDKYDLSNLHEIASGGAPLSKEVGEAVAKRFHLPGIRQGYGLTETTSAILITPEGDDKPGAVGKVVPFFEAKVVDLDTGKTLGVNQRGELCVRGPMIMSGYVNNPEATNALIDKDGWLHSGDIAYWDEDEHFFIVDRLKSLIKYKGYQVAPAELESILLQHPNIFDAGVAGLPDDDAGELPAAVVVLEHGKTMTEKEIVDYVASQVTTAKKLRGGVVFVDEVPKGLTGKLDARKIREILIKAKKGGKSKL
Outline: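 Purified P. pyralis luciferase (10nM final) with 10uM D-luciferin and 10uM ATP (Km levels) in 50mM Tris acetate pH 7.5, 10mM Mg acetate, 0.01% Tween-20, 0.05% BSA; qHTS 6-point titration, ~60 µM downward; luminescence read.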
For `CCOC(=O)CSc1nnc(COc2ccc3ccccc3c2)o1`, the Potency was inconclusive: 23.9 µM [inhibitor, partial curve, poor fit]. In the case of `CCOc1ccc(NC(=O)CSc2oc(-c3cccs3)nc2S(=O)(=O)c2ccc(C)cc2)cc1`, the “activity change, negative = inhibition” value was inactive: 1.61%. For `Cc1cc(C)cc(NC(=O)N2CCCCCCC2)c1`, the Potency was inconclusive: 37.9 µM [inhibitor, partial curve, poor fit]. `Cc1cc(Br)ccc1SCC(=O)OCC(=O)NC1CCCC1` was tested, and the Potency was inconclusive: 30.1 µM [inhibitor, partial curve, poor fit]. In the case of `COc1ccc(C2NC(=O)NC3=C2CCc2ccccc23)cc1` (configuration not stated), the Potency was inconclusive: 21.3 µM [inhibitor, partial curve, poor fit]. In the case of `O=C(Cc1cccs1)N/N=C/c1ccccc1`, the Potency was inconclusive: 21.3 µM [inhibitor, partial curve, poor fit]. With `CSc1nnc(NC(=O)c2ccc3c(c2)OCO3)s1` the Potency was active: 0.478 µM. With `Cc1ccc(C(=O)CCNc2ccc(Br)cc2)o1` the Potency was inconclusive: 21.3 µM [inhibitor, partial curve]. `CCCn1c(COc2cccc(C)c2)nc2ccccc21` was tested, and the Potency was inconclusive: 23.9 µM [inhibitor, partial curve, poor fit]. With `COc1ccc(OCCCC(=O)OCC(=O)Nc2sccc2C(N)=O)cc1` the Potency was inconclusive: 37.9 µM [inhibitor, partial curve, poor fit]. With `O=C(Nc1ccc(Cl)cc1C(=O)Nc1ccncc1)c1ccco1` the “activity change, negative = inhibition” value was inactive: -17.5%. In the case of `CC(C)Oc1cccc(C(=O)C2CCCN(S(C)(=O)=O)C2)c1` (configuration not stated), the “activity change, negative = inhibition” value was inactive: -9.86%. In the case of `CN(CC1CCCCO1)C(=O)c1cc(COc2ccc(F)cc2Cl)on1` (configuration not stated), the Potency was inconclusive: 8.49 µM [inhibitor, partial curve, poor fit]. With `O=C(NNC(=S)Nc1ccc(Br)cc1Cl)c1ccco1` the Potency was active: 16.9 µM. For `CCc1ccc(C(=O)CCC2CCCCC2=O)cc1` (configuration not stated), the Potency was active: 12 µM. For `NS(=O)(=O)c1ccc(NC(=O)COC(=O)C2CCCCC2)cc1`, the Potency was inconclusive: 19 µM [inhibitor, partial curve, poor fit]. For `COC(=O)c1sccc1NC(=O)CCC1CCCCC1`, the Potency was inconclusive: 7.57 µM [inhibitor, partial curve, poor fit]. In the case of `CC(=O)Nc1sc(N/N=C\c2ccc(O)cc2)nc1-c1cccs1`, the Potency was active: 12 µM. In the case of `CCOc1ccc(NC(=O)C2CCCN(S(=O)(=O)c3cnc[nH]3)C2)cc1` (configuration not stated), the “activity change, negative = inhibition” value was inactive: 3.13%. For `O=C(OCc1nnc(-c2ccccc2)o1)c1cn(-c2ccccc2)nc1-c1ccccc1`, the Potency was inconclusive: 26.9 µM [inhibitor, partial curve, poor fit]. For `C(=N\Nc1ccc2ccccc2n1)/c1ccc2c(c1)OCCO2`, the Potency was active: 0.0675 µM. In the case of `O=C(NN1C(=O)c2cc(Br)ccc2NC1c1ccccc1Cl)c1ccncc1` (configuration not stated), the Potency was inconclusive: 26.9 µM [inhibitor, partial curve, poor fit]. `COc1ccccc1/C=N/NC(=O)NC12CC3CC(CC(C3)C1)C2` was tested, and the Potency was inconclusive: 33.8 µM [inhibitor, partial curve, poor fit]. `O=C(O)c1ccccc1NC(=O)c1cc(-c2ccccc2)nc2ccccc12` was tested, and the Potency was inconclusive: 26.9 µM [inhibitor, single point]. `Clc1ccc(CSc2ccc(-c3ccccn3)nn2)cc1` was tested, and the Potency was inconclusive: 3.79 µM [inhibitor, full curve]. With `CCCCOc1ccc(C2CCC(C(C)=O)C(C)C2)cc1` (configuration not stated) the Potency was inconclusive: 23.9 µM [inhibitor, partial curve]. `COc1ccc(N2C(=O)c3ccccc3C2=O)cc1` was tested, and the Potency was inconclusive: 30.1 µM [inhibitor, single point]. For `Cc1ccccc1-c1nnc(SCC(=O)N(C)c2ccccc2)o1`, the Potency was inconclusive: 21.3 µM [inhibitor, partial curve, poor fit]. In the case of `O=C(Nc1nnc(Cc2ccc(Cl)cc2)s1)c1ccncc1`, the Potency was inconclusive: 21.3 µM [inhibitor, partial curve, poor fit]. In the case of `NS(=O)(=O)c1ccc(CNC(=O)c2cc(-c3ccccc3)nc3ccccc23)cc1`, the Potency was inconclusive: 26.9 µM [inhibitor, partial curve, poor fit]. `COc1ccc(Cn2c(-c3ccco3)nc3oc4cc(OC)ccc4c(=O)c3c2=O)cc1` was tested, and the Potency was inconclusive: 2.69 µM [inhibitor, partial curve, poor fit]. In the case of `Cc1ccc(-c2nc(-c3ccncc3)no2)cc1Cl`, the Potency was active: 2.69 µM. For `CSc1c(-c2ccccn2)c(N)nn1C(=O)C1CC1`, the Potency was active: 19 µM. For `C/C(=N\NC(=O)OC(C)(C)C)c1ccc[nH]1`, the Potency was inconclusive: 15.1 µM [inhibitor, partial curve, poor fit]. `O=C(/C=C/c1ccc(Cl)cc1Cl)NCc1ccncc1` was tested, and the Potency was inconclusive: 23.9 µM [inhibitor, partial curve]. In the case of `CCOC(=O)/C(C#N)=C/c1cc2cc(C)c(C)cc2nc1Cl`, the Potency was inconclusive: 8.49 µM [inhibitor, partial curve, poor fit]. With `COc1ccc(Br)cc1[C@H]1[C@@H]2C=CCC[C@@]2(C)C(=O)N1Cc1ccccc1` the “activity change, negative = inhibition” value was inactive: 1.13%. `COc1ccc(-c2csc(NC(=O)c3ccccc3F)n2)cc1` was tested, and the Potency was inconclusive: 26.9 µM [inhibitor, single point]. In the case of `Cc1ccc(OC(=O)c2sc(Cl)nc2C)cc1C`, the Potency was inconclusive: 30.1 µM [inhibitor, single point]. For `CC(=O)Nc1ccc(Nc2nc(-c3sc(C)nc3C)cs2)cc1`, the Potency was active: 21.3 µM. With `O=C(c1cccc(S(=O)(=O)N2CCOCC2)c1)N(Cc1nnc(-c2ccccc2Cl)o1)C1CC1` the Potency was inconclusive: 23.9 µM [inhibitor, partial curve]. For `CNC(=S)N/N=C/c1ccc(N2CCOCC2)s1`, the Potency was inconclusive: 26.9 µM [inhibitor, single point]. In the case of `O=C(CSc1nnc(Nc2ccccc2)s1)NC1CC1`, the Potency was inconclusive: 26.9 µM [inhibitor, partial curve, poor fit]. In the case of `CN(C(=O)c1ccc2nc(N)sc2c1)c1ccccc1`, the “activity change, negative = inhibition” value was inactive: -1.55%. In the case of `O=C(Nc1ccc(-c2nc3ccccc3o2)c(O)c1)c1cc(Cl)ccc1Cl`, the Potency was inconclusive: 13.5 µM [inhibitor, partial curve, poor fit]. In the case of `CCN(C(=O)CCS(=O)(=O)c1ccc2c(c1)CCN2C(C)=O)c1cccc(C(F)(F)F)c1`, the “activity change, negative = inhibition” value was inactive: -1.96%. For `Oc1ccccc1/C=N/N1CCCCC1`, the Potency was active: 23.9 µM. For `CSc1nnc2c(n1)c(C)nn2-c1cccc(C)c1`, the Potency was active: 13.5 µM. For `CCOc1ccc(NC(=O)Nc2ccc(Cc3ccncc3)cc2)cc1`, the “activity change, negative = inhibition” value was inactive: 0.172%. In the case of `C=CCn1c(SCC(=O)Nc2ccccc2C)nc(O)cc1=O`, the “activity change, negative = inhibition” value was inactive: 0.729%. In the case of `CSc1ccccc1OCc1cc(C(=O)N2CCCC(C)C2)no1` (configuration not stated), the Potency was active: 6.75 µM. With `Nc1c2c(=O)oc(-c3ccccc3)cc2nn1-c1ccccc1` the Potency was active: 4.78 µM. With `CN(CCO)c1ncnc2c1sc1nc(N3CCOCC3)c3c(c12)CCC3` the Potency was inconclusive: 23.9 µM [inhibitor, single point]. In the case of `O=C(CSc1nnc(-c2cccs2)o1)N1CCCc2ccccc21`, the Potency was inconclusive: 33.8 µM [inhibitor, partial curve, poor fit]. In the case of `CC1CCCCN1C(=O)COC(=O)c1cc([N+](=O)[O-])ccc1N` (configuration not stated), the Potency was inconclusive: 37.9 µM [inhibitor, single point]. `O=C(Cc1csc(NC(=O)Nc2cccc(Cl)c2)n1)NC1CCCC1` was tested, and the Potency was inconclusive: 3.01 µM [inhibitor, full curve]. In the case of `COc1ccc(-c2noc(-c3cccc(Cl)c3)n2)cc1OC`, the Potency was inconclusive: 6.75 µM [inhibitor, full curve]. With `CC(OC(=O)CCCc1nc2ccccc2s1)C(N)=O` (configuration not stated) the Potency was inconclusive: 33.8 µM [inhibitor, partial curve, poor fit]. For `CC(=O)c1cnc(Nc2cccc(Cl)c2Cl)s1`, the Potency was inconclusive: 26.9 µM [inhibitor, single point]. With `Cc1ccc(CSCCC(=O)N2CCN(c3ccc(F)cc3)CC2)cc1` the “activity change, negative = inhibition” value was inactive: -8.8%. For `COc1ccccc1CNC(=O)Cn1c(-c2ccc(F)cc2)cc(C(C)=O)c1C`, the “activity change, negative = inhibition” value was inactive: -2.25%. `C/C(CC(=O)Nc1cccnc1)=N\NC(=O)C(=O)Nc1cccc(C)c1` was tested, and the Potency was inconclusive: 33.8 µM [inhibitor, partial curve, poor fit]. `O=C(Cn1nc(Cc2ccncc2)c2ccccc2c1=O)Nc1cccc(C(F)(F)F)c1` was tested, and the “activity change, negative = inhibition” value was inactive: 4.71%. With `CN(C(=O)c1c[nH]c2ccc(S(=O)(=O)Nc3cccc(C(F)(F)F)c3)cc2c1=O)C1CCCCC1` the Potency was inconclusive: 7.57 µM [inhibitor, partial curve]. In the case of `CNC(=S)N(CCCN(C)C)Cc1cc2cc3c(cc2[nH]c1=O)OCCO3`, the “activity change, negative = inhibition” value was inactive: 1.02%. `CC(=O)Nc1ccc(NC(=O)CN2C(=O)CC(c3ccco3)Sc3ccccc32)cc1` (configuration not stated) was tested, and the Potency was inconclusive: 37.9 µM [inhibitor, partial curve, poor fit]. In the case of `Cc1cccc(NC(=O)CN2C(=O)CCS(=O)(=O)c3ccccc32)c1C`, the “activity change, negative = inhibition” value was inactive: -0.429%. For `CCOc1ccc(C2C(=O)N(C3CCCCCC3)CC(=O)N2Cc2ccc(F)cc2)cc1OC` (configuration not stated), the “activity change, negative = inhibition” value was inactive: -5.42%. For `COc1ccccc1Cn1c(=S)[nH]c2cc(C(=O)NCCN(C)C)ccc2c1=O`, the “activity change, negative = inhibition” value was inactive: 1.89%. For `C#Cc1cccc(NC(=O)c2ccc(Cl)cc2Cl)c1`, the Potency was active: 2.69 µM. In the case of `CCOc1ccccc1NC(=O)Nc1ccc2nc(N3CCN(C)CC3)cc(C)c2c1`, the Potency was active: 5.36 µM. With `Cc1cc2cc(CNC(=O)c3ccc(C)c([N+](=O)[O-])c3)ccc2[nH]1` the Potency was inconclusive: 21.3 µM [inhibitor, single point].

From PubChem BioAssay AID588342 (National Center for Advancing Translational Sciences (NCATS), 2011)
Further: nearly all actives have a fitted effect of over 55% in size.
Potency means the concentration at half of the fitted maximal effect; tags describe the fitted curve by direction and shape.
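Wherever activity change, negative = inhibition is given: plate controls were vehicle for no effect and reference inhibitor for full effect.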
